In all, about 2,800 compounds went through this assay and fewer than 10 were called active. Calls come from the whole dose curve; as a rule, active = well fitted curve in the direction sought with a large enough effect; inconclusive = small, poorly fitted or top-dose-only effect, or another doubt; inactive = no such curve, though single readings can be large or run the other way. The list shows a part of the results.
Target: Metallo-beta-lactamase type 2 (Klebsiella pneumoniae) (UniProt C7C422)
Assay: qHTS to identify inhibitors of the New Delhi Metallo-beta-lactamase (NDM): Meropenem screen against the machine-based learning selections. Note: % of control where 0% means no effect.
Conditions: Purified NDM-1, meropenem hydrolysis, absorbance 300 nm; at 38.4 µM (top of the series) unless noted
Procedure, shortened: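 NDM-1 (2 nM final) in 50 mM HEPES pH 7.0, 1 uM Zn2SO4, 0.01% Tween20 was preincubated with compounds for >30 min. Nitrocefin (16.7 uM final) was read at 485 nm after 15 min, and meropenem (50 uM final) at 300 nm after 30 min.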

UniProt C7C422, sequence (C7C422 whole entry, looked up): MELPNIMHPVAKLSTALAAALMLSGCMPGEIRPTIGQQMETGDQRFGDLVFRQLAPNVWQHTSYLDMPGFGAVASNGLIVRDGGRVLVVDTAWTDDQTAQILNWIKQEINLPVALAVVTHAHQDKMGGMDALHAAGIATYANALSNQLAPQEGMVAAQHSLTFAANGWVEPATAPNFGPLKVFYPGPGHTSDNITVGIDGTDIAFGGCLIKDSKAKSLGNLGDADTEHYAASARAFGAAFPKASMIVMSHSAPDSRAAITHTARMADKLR

Activity change, negative = inhibition, inactive:
CCN1CCN(C2(C(=O)NCCc3ccccc3)Cc3ccccc3C2)CC1 -1.55%
COc1cccc(Nc2cc3c(cn2)CN(Cc2cccnc2)CCN3)c1 -3.69% [at 57.5 µM]
CC[C@@]1(C(=O)O)C[C@H](C(=O)NC(CO)CO)[C@H](c2ccc(F)cc2)N1C 21.7%
COc1ccc(C(=O)N[C@H](Cc2ccccn2)C2CC(O)C2)cc1F (some centres undefined) -0.207%
Cc1noc2c(Nc3ccc(C(N)=O)cc3)cc(-c3ccc(F)cc3)nc12 -1.96% [at 57.5 µM]
CN(CCO)C[C@@H]1CN(C(=O)c2nc3ccccc3[nH]c2=O)C[C@@H]1CO 1.08%
Cc1cncc(C(=O)N2CC[C@@H](c3ccc4ccccc4c3)[C@H](O)C2)c1 -0.608%
CN1[C@@H](CCC(=O)N2CCN(c3ccccc3)CC2)CNC(=O)[C@@H]2[C@H]1CCN2CC(C)(C)C 1.39%
O=C(N[C@H](c1cccs1)C1CC(O)C1)C1CCN(C2CCOCC2)CC1 (some centres undefined) -0.235%
Cc1cccc(Nc2nc(N)nc(CN3CC[C@@H](N)[C@H](O)C3)n2)c1 8.91%
O=C(Nc1ccc2c(c1)OCO2)C1CCc2sc(C(=O)N3CCCC3)cc2C1 (centres undefined) 4.03%
CN(C)C(=O)N1CCCn2nc(CNC(=O)c3ccc4[nH]ccc4c3)cc2C1 2.4%
Fc1ccc(-c2cnc([C@@H]3COCCN3C3CCC3)[nH]2)cc1 -0.292% [at 57.5 µM]
COc1ccc(CNC(=O)[C@@H]2Cc3nc[nH]c3CN2Cc2ccc(Cl)cc2)cc1 18% [at 57.5 µM]
Cc1ccc(-c2cc(O)c3c(c2)CNCCO3)s1 10.5%
O=C(c1ccc2nccnc2c1)N1CCC2(CC1)Nc1ccccc1NC2=O 5.68%
c1ccc(CN2CC(CNc3cccnc3)C3(C2)CN(c2ccccc2)C3)cc1 (centres undefined) 1.76% [at 57.5 µM]
O=C(Nc1ccc([C@H]2OCC(=O)N(CC3CCCCC3)[C@@H]2CO)cc1)c1ccccn1 35.5% [at 57.5 µM]
CC(C)NC(=O)C[C@@H]1C[C@H]2O[C@H](CNCc3cnccc3Cl)[C@@H](O)[C@H]2O1 1.51% [at 57.5 µM]
COCCNC(=O)C[C@@H]1C[C@@H](C(C)C)[C@H](CNC(=O)CCC(=O)O)C=C1C 2.81% [at 57.5 µM]
COc1ccccc1-c1[nH]nc2ncc(-c3cccc(O)c3)nc12 3.21% [at 57.5 µM]
O=C1[C@@H]2C[C@@H](CN2Cc2cnc3ccccc3c2)Oc2ccccc2N1Cc1ccccc1 1.36%
O=C(NC[C@H]1O[C@@H](CC(=O)N2CCOCC2)[C@H](O)[C@@H]1O)Nc1ccc(F)cc1F 8.7% [at 57.5 µM]
CCn1c(C)cc(C)c(C(=O)NCC2CCN(c3cnn(C)c(=O)c3)C2)c1=O (centres undefined) 6.1%
CC(C)C1c2nccn2CCCN1C(=O)CN1CCCC1=O (centres undefined) -1.43%
Cc1ccc2c(c1)nc1n2[C@@H](CNC(C)C)COC1 0.33% [at 76.7 µM]
Cc1noc(C)c1S(=O)(=O)N1CCCC(Cc2nncn2CC2CC2)C1 (centres undefined) 2.13%
O=C(NC[C@H]1O[C@@H](CC(=O)N2CCN(c3ccc(F)cc3)CC2)[C@H](O)[C@@H]1O)c1ccco1 6.44%
COc1ccc(C(=O)N[C@@H]2CN(C(=O)NC3CCCCC3)CCC[C@H]2O)cc1 -0.965% [at 57.5 µM]
O=C(N[C@@H]1CCN(Cc2ccc3nsnc3c2)C[C@H]1O)c1cnccn1 11.7%
CCC[S+](=O)([O-])N1CCN(C(=O)N2CC3CC(C2)[C@H]2CCCC(=O)N2C3)CC1 (some centres undefined) -3.2%
COc1ccc(-c2ccc3c(c2)C(=O)N2CC[C@H](NC(=O)NC4CCCCC4)[C@H]2C(=O)N3)cc1 9.01%
Cc1ccc(S(N)(=O)=O)cc1C(=O)N1CCC2(CCCNC2=O)C1 (centres undefined) -0.823%
Cn1c(CCNC(=O)c2ccccc2C2CCNC2)nc2ccccc21 (centres undefined) 48.8%
Cn1cnnc1CC1CCN(C(=O)c2cn3ccsc3n2)CC1 1.51%
COc1ccc(-c2cc(-c3cccc(C(N)=O)c3)cn3cncc23)cc1 29.1% [at 57.5 µM]
O=C(c1ccc2cccnc2c1O)N1CCCC(CCc2ccccc2F)C1 (centres undefined) 101%
CN(CCO)CC1(O)CCCN(Cc2cccc(F)c2F)C1=O (centres undefined) 7.29%
CC(C)NC(=O)N1CCN(C(=O)N2CCOCC2)[C@@H](C(=O)N[C@H](Cc2c[nH]c3ccccc23)C(N)=O)C1 3.06%
OCc1cccc(-c2ccc3ncc(Nc4cccnc4)n3n2)c1 46.3% [at 57.5 µM]
OCc1cc2n(n1)CCCN(Cc1cccc(OCc3ccccn3)c1)C2 -1.31%
CCCN(CC1CCOC1)C(=O)c1cc(Cl)ccc1F (centres undefined) -2.61%
Cn1c(CNC(=O)c2cccc(C3CCNC3)c2)nc2ccccc21 (centres undefined) 32.8%
CC(C)CC(=O)N1CCCC(Cc2nncn2C(C)C)C1 (centres undefined) 1.48%
FC(F)(F)Oc1cccc(CN2CCNc3cc(Nc4cccnc4)ncc3C2)c1 -1.26% [at 57.5 µM]
Cc1ncsc1CN(Cc1ccccc1)C(=O)CCn1nnnc1CN1CCOCC1 1.17%
CCc1ccccc1NC(=O)Cn1ccn2nc(-c3ccc(F)cc3)c(CO)c2c1=O -0.362%
COc1ccc(NC(=O)N2CCOC(c3ccc(Cl)cc3)C2)c(C)c1 (centres undefined) -2.56%
CC(C)(C)C(=O)N1CCC2(CC1)OCC(C(=O)NC1CC1)N2C(=O)c1ccc(F)cc1 (centres undefined) -0.368%
Cc1cccnc1C(=O)N[C@@H]1CN(C2CCOCC2)C[C@H]1CN(C)C -1.23%
Nc1ncccc1CN1C[C@H]2CN(C(=O)C3CCC3)C[C@@]2(C(=O)O)C1 40.9%
OCCc1ccc(Nc2cnc3ccc(-c4cccc(CO)c4)nn23)cc1 57.3% [at 57.5 µM]
CN1C(=O)CC(C(=O)O)C12CCN(C(=O)CCc1cccnc1)CC2 (centres undefined) 3.38%
OC[C@@H]1O[C@H](CNCc2ccc(F)cc2)[C@H](N2CCOCC2)[C@@H]1O 67% [at 57.5 µM]
CN(C(=O)C1CCCC1)C1CCc2ccccc2C1 (centres undefined) 1.71% [at 57.5 µM]
Cc1ccccc1-c1cnc2[nH]cc(CC(=O)NCc3cccnc3)c2c1 7.8% [at 57.5 µM]
c1cncc(Nc2cc3c(cn2)CN(Cc2c[nH]c4ccccc24)CCN3)c1 -0.317% [at 57.5 µM]
Cc1oc(C(O)c2cccc(O)c2)nc1C(=O)NCc1ccccc1 (centres undefined) -1.22% [at 57.5 µM]
c1ccc(CCN2CCNc3cc(-c4cn[nH]c4)ncc3C2)cc1 -2.17% [at 57.5 µM]
OCC1CCCCN1CCNc1nccc(-c2cccnc2)n1 (centres undefined) -0.494%
OC(c1nc(Nc2ccc(Cl)cc2)n[nH]1)C1CC1 (centres undefined) 1.56% [at 76.7 µM]
O=C(N[C@H]1CO[C@H]2[C@@H]1OC[C@@H]2Nc1nccc(-c2cccc(F)c2)n1)c1ccccc1 1.66% [at 57.5 µM]
Cc1oc(C(O)c2cccc(O)c2)nc1C(=O)Nc1ccccc1 (centres undefined) -0.207% [at 57.5 µM]
COc1ccc(-c2noc(C(=O)O)c2[C@@H](C)NC(=O)c2ccccc2)cc1 43.1% [at 57.5 µM]
Cc1ccc(C(=O)N2CCN(c3nnc4cccc(C)n34)CC2)cc1F -3.29%
Cc1cccc(OCC2(CNC(=O)c3cnccn3)C[C@@H](O)[C@@H](O)C2)n1 (some centres undefined) 30.9% [at 57.5 µM]
Cc1ccccc1CN1C[C@H](O)C[C@H]1c1nc(-c2cccnc2)no1 1.53% [at 57.5 µM]
O=C(c1ccccc1F)N1CCCC2(C1)C(=NC1CCCC1)NC(=O)N2c1cc(F)cc(F)c1 (centres undefined) 0.622%
O=c1cc2c(nn1Cc1cccc(Br)c1)CCCCC2 -2.44%
CC(C)N1C(=O)[C@@H]2[C@@H](CCN2C(=O)CCCC(=O)O)N(Cc2cccc(F)c2)C1=O -0.0117% [at 57.5 µM]
Oc1ccc(-c2cc3c(cn2)CN(Cc2ccccc2)CCN3)cc1F 7.15% [at 57.5 µM]
CC1=C[C@@H](CO)[C@H](C(C)C)C[C@H]1CC(=O)NCc1ccc(F)cc1 -0.0017% [at 57.5 µM]
COCCN1C[C@H]2CN(C(=O)C3CC3)CCN2C1=O -0.0977% [at 76.7 µM]
CC(=O)N1CCN([C@H]2[C@@H]3OC[C@@H](O3)[C@@H](NC(=O)Nc3cccc(C(F)(F)F)c3)[C@@H]2O)CC1 0.574%
CNc1ccc(-c2noc([C@@H]3CCCN3Cc3cccnc3)n2)cn1 9.9% [at 57.5 µM]
CCCCC(=O)Nc1ccc(C)cc1NC(=O)COc1cccnc1 -1.33%
CS(=O)(=O)NC[C@H]1O[C@@H](CC(=O)N2CCN(c3ccccn3)CC2)[C@H](O)[C@@H]1O 0.305% [at 57.5 µM]
COc1ccccc1CN1CCC2(CC1)CC(C(=O)O)N(C(C)=O)C2 (centres undefined) 2.43%
COCCn1c(C)cnc1CCNC(=O)c1cc(C)nn1C 46.6%
